In the antibiotic and cytotoxicity screens of Wong et al. (2023):
Some of the results follow.

Experiments:
HSkMC = human skeletal muscle cells; assay: cytotoxicity call (relative viability < 0.9); conditions: 10 µM
HepG2 = assay: cytotoxicity call (relative viability < 0.9); conditions: 10 µM
S. aureus RN4220 = assay: growth inhibition call (relative growth <= 0.2); conditions: 50 µM

COc1ccc(NC(=O)N(C)C[C@@H]2OCCCC[C@H](C)Oc3ccc(NC(=O)Nc4ccc(C(F)(F)F)cc4)cc3C(=O)N([C@@H](C)CO)C[C@@H]2C)cc1
inactive: cytotoxicity call (HSkMC) | cytotoxicity call (HepG2) | growth inhibition call (S. aureus RN4220)

Cc1ccc(S(=O)(=O)N[C@@H]2CC[C@H](CC(=O)NCc3ccc(Cl)c(Cl)c3)O[C@H]2CO)cc1
inactive: cytotoxicity call (HSkMC) | cytotoxicity call (HepG2) | growth inhibition call (S. aureus RN4220)

COc1ccc(S(=O)(=O)N2C[C@@H](O)COC[C@@H]3O[C@H](CC(=O)NCCN4CCCCC4)CC[C@H]32)cc1
inactive: cytotoxicity call (HSkMC) | cytotoxicity call (HepG2) | growth inhibition call (S. aureus RN4220)

COc1ccc(S(=O)(=O)N(C)C[C@@H]2Oc3c(NC(=O)c4cc(C)nn4C)cccc3C(=O)N([C@@H](C)CO)C[C@H]2C)cc1
inactive: cytotoxicity call (HSkMC) | cytotoxicity call (HepG2) | growth inhibition call (S. aureus RN4220)

C[C@H](CO)N1C[C@H](C)[C@H](CN(C)Cc2ccc(Cl)c(Cl)c2)Oc2c(NC(=O)c3nc4ccccc4s3)cccc2C1=O
inactive: cytotoxicity call (HSkMC) | cytotoxicity call (HepG2) | growth inhibition call (S. aureus RN4220)

COC(=O)N1CCC[C@H](C(=O)O)C1
inactive: cytotoxicity call (HSkMC) | cytotoxicity call (HepG2) | growth inhibition call (S. aureus RN4220)

C[C@H]1CN([C@@H](C)CO)S(=O)(=O)c2ccc(Br)cc2O[C@H]1CN(C)C(=O)c1cccc(F)c1
inactive: cytotoxicity call (HSkMC) | cytotoxicity call (HepG2) | growth inhibition call (S. aureus RN4220)

C[C@@H]1CCCCO[C@@H](CN(C)S(=O)(=O)c2ccc(F)cc2)[C@@H](C)CN([C@@H](C)CO)C(=O)c2cc(NC(=O)c3ccccc3)ccc2O1
inactive: cytotoxicity call (HSkMC) | cytotoxicity call (HepG2) | growth inhibition call (S. aureus RN4220)

O=C(C[C@@H]1CC[C@H]2[C@@H](COC[C@@H](O)CN2C(=O)c2cnccn2)O1)N1CCN(c2ccccc2)CC1
inactive: cytotoxicity call (HSkMC) | cytotoxicity call (HepG2) | growth inhibition call (S. aureus RN4220)

C#CCCC(=O)NS(=O)(=O)c1ccccc1
inactive: cytotoxicity call (HSkMC) | cytotoxicity call (HepG2) | growth inhibition call (S. aureus RN4220)

Cc1cn([C@H]2C[C@H](O)[C@@H](CO)O2)c(=O)[nH]c1=O
inactive: cytotoxicity call (HSkMC) | cytotoxicity call (HepG2) | growth inhibition call (S. aureus RN4220)

C[C@@H]1CN([C@@H](C)CO)C(=O)c2cc(NC(=O)CCCN(C)C)ccc2O[C@@H]1CN(C)Cc1ccncc1
inactive: cytotoxicity call (HSkMC) | cytotoxicity call (HepG2) | growth inhibition call (S. aureus RN4220)

C[C@H]1CN([C@@H](C)CO)C(=O)CCCn2nncc2CO[C@@H]1CN(C)S(=O)(=O)c1cn(C)cn1
inactive: cytotoxicity call (HSkMC) | cytotoxicity call (HepG2) | growth inhibition call (S. aureus RN4220)

C[C@H](CO)N1C[C@H](C)[C@H](CN(C)C(=O)Nc2ccccc2C(F)(F)F)OCc2ccccc2-c2c(n(C)c3ccccc23)C1=O
inactive: cytotoxicity call (HSkMC) | cytotoxicity call (HepG2) | growth inhibition call (S. aureus RN4220)

C[C@@H]1CCCCO[C@H](CN(C)C(=O)c2ccncc2)[C@@H](C)CN([C@H](C)CO)C(=O)c2cc(NS(=O)(=O)c3cn(C)cn3)ccc2O1
inactive: cytotoxicity call (HSkMC) | cytotoxicity call (HepG2) | growth inhibition call (S. aureus RN4220)

Nc1ccn([C@@H]2O[C@H](CO)[C@@H](O)[C@H]2O)c(=O)n1
inactive: cytotoxicity call (HSkMC) | cytotoxicity call (HepG2) | growth inhibition call (S. aureus RN4220)

Cc1ccc(S(=O)(=O)Nc2cccc3c2O[C@@H](CN(C)CC2CC2)[C@@H](C)CN([C@@H](C)CO)C3=O)cc1
inactive: cytotoxicity call (HSkMC) | cytotoxicity call (HepG2) | growth inhibition call (S. aureus RN4220)

COc1ccc(CN(C)C[C@@H]2Oc3ccc(NC(=O)CCN4CCOCC4)cc3C(=O)N([C@H](C)CO)C[C@@H]2C)cc1
inactive: cytotoxicity call (HSkMC) | cytotoxicity call (HepG2) | growth inhibition call (S. aureus RN4220)

C[C@@H]1CCCCO[C@H](CN(C)Cc2ccccc2)[C@@H](C)CN([C@H](C)CO)C(=O)c2cc(NC(=O)NC3CCCCC3)ccc2O1
inactive: cytotoxicity call (HSkMC) | cytotoxicity call (HepG2) | growth inhibition call (S. aureus RN4220)

Cc1noc(C)c1NC(=O)Nc1ccc2c(c1)C(=O)N([C@@H](C)CO)C[C@H](C)[C@@H](CN(C)S(=O)(=O)c1ccc(Cl)cc1)OCCCC[C@@H](C)O2
inactive: cytotoxicity call (HSkMC) | cytotoxicity call (HepG2) | growth inhibition call (S. aureus RN4220)

C[C@H]1CN([C@@H](C)CO)C(=O)c2cc(C#Cc3ccccn3)cnc2O[C@@H]1CN(C)C(=O)c1cnccn1
inactive: cytotoxicity call (HSkMC) | cytotoxicity call (HepG2) | growth inhibition call (S. aureus RN4220)

CC1(C)[C@H]2CC[C@@]1(CS(N)(=O)=O)C(=O)C2
inactive: cytotoxicity call (HSkMC) | cytotoxicity call (HepG2) | growth inhibition call (S. aureus RN4220)

C[C@@H]1CCCCO[C@@H](CN(C)C(=O)C2CCCCC2)[C@H](C)CN([C@@H](C)CO)C(=O)c2cc(NS(=O)(=O)c3cccs3)ccc2O1
inactive: cytotoxicity call (HSkMC) | cytotoxicity call (HepG2) | growth inhibition call (S. aureus RN4220)

C[C@@H]1CCCCO[C@H](CN(C)C(=O)Nc2ccc(F)cc2)[C@@H](C)CN([C@H](C)CO)C(=O)c2cc(NS(=O)(=O)c3ccccc3)ccc2O1
inactive: cytotoxicity call (HSkMC) | cytotoxicity call (HepG2) | growth inhibition call (S. aureus RN4220)

CCCNC(=O)N(C)C[C@@H]1Oc2cc(-c3ccccc3F)ccc2S(=O)(=O)N([C@@H](C)CO)C[C@H]1C
inactive: cytotoxicity call (HSkMC) | cytotoxicity call (HepG2) | growth inhibition call (S. aureus RN4220)

COc1ccc(S(=O)(=O)Nc2cccc3c2O[C@@H](CN(C)S(=O)(=O)c2cn(C)cn2)[C@@H](C)CN([C@@H](C)CO)C3=O)cc1
inactive: cytotoxicity call (HSkMC) | cytotoxicity call (HepG2) | growth inhibition call (S. aureus RN4220)
